Measurements from the GPR68 mutational scans of Howard et al. (2025).
Scores whose standard error is large were omitted. Two further conditions of the source, in which the scores hardly spread, are not listed. Read del as a deletion of the residues named and ins as an insertion between two positions. For some of these results: The concentration of ogerin is not given here.

B1: GPR68, Q15743 (parent)
chain: MGNITADNSSMSCTIDHTIHQTLAPVVYVTVLVVGFPANCLSLYFGYLQIKARNELGVYLCNLTVADLFYICSLPFWLQYVLQHDNWSHGDLSCQVCGILLYENIYISVGFLCCISVDRYLAVAHPFRFHQFRTLKAAVGVSVVIWAKELLTSIYFLMHEEVIEDENQHRVCFEHYPIQAWQRAINYYRFLVGFLFPICLLLASYQGILRAVRRSHGTQKSRKDQIQRLVLSTVVIFLACFLPYHVLLLVRSVWEASCDFAKGVFNAYHFSLLLTSFNCVADPVLYCFVSETTHRDLARLRGACLAFLTCSRTGRAREAYPLGAPEASGKSGAQGEEPELLTKLHPAFQTPNSPGSGGFPTGRLA

Assays:
[1] = variants of: B1; test: cAMP reporter score (Enrich2 score, wild type = 0); higher = more signal; HEK293T, FACS bins
[2] = variants of: B1; test: surface expression score (Enrich2 score, wild type = 0); higher = more signal; HEK293T, FACS bins

Variant: V289F
- cAMP reporter score ([1]; pH 5.5): -0.096
- cAMP reporter score ([1]; pH 6, modulator: ogerin): -0.32
- cAMP reporter score ([1]; pH 6.5, modulator: ogerin): 0.53
- surface expression score [2]: -0.968

Variant: V289G
- cAMP reporter score ([1]; pH 5.5): 1.07
- cAMP reporter score ([1]; pH 6): -0.296
- cAMP reporter score ([1]; pH 6, modulator: ogerin): 0.254
- cAMP reporter score ([1]; pH 6.5, modulator: ogerin): -1.29
- surface expression score [2]: -1.62

Variant: V289H
- cAMP reporter score ([1]; pH 5.5): 0.509
- cAMP reporter score ([1]; pH 6, modulator: ogerin): 1.49
- surface expression score [2]: -0.596

Variant: V289I
- cAMP reporter score ([1]; pH 5.5): -0.781
- cAMP reporter score ([1]; pH 6): -0.242
- cAMP reporter score ([1]; pH 6, modulator: ogerin): -0.707
- cAMP reporter score ([1]; pH 6.5, modulator: ogerin): -0.301
- surface expression score [2]: -0.417

Variant: V289K
- cAMP reporter score ([1]; pH 5.5): -0.014
- cAMP reporter score ([1]; pH 6, modulator: ogerin): 0.258
- cAMP reporter score ([1]; pH 6.5, modulator: ogerin): -0.017
- surface expression score [2]: -1.16

Variant: V289L
- cAMP reporter score ([1]; pH 5.5): -0.974
- cAMP reporter score ([1]; pH 6, modulator: ogerin): 0.289
- surface expression score [2]: 1.81

Variant: V289M
- cAMP reporter score ([1]; pH 5.5): 1.61
- cAMP reporter score ([1]; pH 6): 4.96
- cAMP reporter score ([1]; pH 6, modulator: ogerin): 1.81
- surface expression score [2]: -0.402

Variant: V289N
- cAMP reporter score ([1]; pH 5.5): 0.705
- cAMP reporter score ([1]; pH 6, modulator: ogerin): -0.2
- cAMP reporter score ([1]; pH 6.5, modulator: ogerin): 0.897
- surface expression score [2]: -0.419

Variant: V289Q
- cAMP reporter score ([1]; pH 5.5): -0.936
- cAMP reporter score ([1]; pH 6, modulator: ogerin): -0.953
- cAMP reporter score ([1]; pH 6.5, modulator: ogerin): 0.781
- surface expression score [2]: -1.8

Variant: V289R
- cAMP reporter score ([1]; pH 5.5): 0.823
- cAMP reporter score ([1]; pH 6, modulator: ogerin): -0.292
- cAMP reporter score ([1]; pH 6.5, modulator: ogerin): -0.442
- surface expression score [2]: -0.812

Variant: V289S
- cAMP reporter score ([1]; pH 5.5): 1.71
- cAMP reporter score ([1]; pH 6): 0.605
- cAMP reporter score ([1]; pH 6, modulator: ogerin): 2
- cAMP reporter score ([1]; pH 6.5, modulator: ogerin): 1.21
- surface expression score [2]: -0.112

Variant: V289T
- cAMP reporter score ([1]; pH 5.5): 0.307
- cAMP reporter score ([1]; pH 6, modulator: ogerin): 0.968
- cAMP reporter score ([1]; pH 6.5, modulator: ogerin): 1.37
- surface expression score [2]: -0.43

Variant: V289W
- cAMP reporter score ([1]; pH 5.5): 0.221
- cAMP reporter score ([1]; pH 6): 2.17
- cAMP reporter score ([1]; pH 6, modulator: ogerin): -0.269
- cAMP reporter score ([1]; pH 6.5, modulator: ogerin): 0.995
- surface expression score [2]: -1.46

Variant: V289Y
- cAMP reporter score ([1]; pH 5.5): 0.643
- cAMP reporter score ([1]; pH 6): 3.86
- cAMP reporter score ([1]; pH 6, modulator: ogerin): -0.091
- cAMP reporter score ([1]; pH 6.5, modulator: ogerin): 3.81
- surface expression score [2]: -0.952

Variant: V289_S290insG
- cAMP reporter score ([1]; pH 5.5): -1.1
- cAMP reporter score ([1]; pH 6): -0.946
- cAMP reporter score ([1]; pH 6, modulator: ogerin): -0.942
- cAMP reporter score ([1]; pH 6.5, modulator: ogerin): -1.14
- surface expression score [2]: -0.068

Variant: V289_S290insGSG
- cAMP reporter score ([1]; pH 5.5): -2.09
- cAMP reporter score ([1]; pH 6): -0.74
- cAMP reporter score ([1]; pH 6, modulator: ogerin): -1.82
- cAMP reporter score ([1]; pH 6.5, modulator: ogerin): -0.747
- surface expression score [2]: 0.067

Variant: S290_E291insGSG
- cAMP reporter score ([1]; pH 5.5): -0.267
- cAMP reporter score ([1]; pH 6): -0.694
- cAMP reporter score ([1]; pH 6, modulator: ogerin): -0.744
- cAMP reporter score ([1]; pH 6.5, modulator: ogerin): -0.575
- surface expression score [2]: 0.444

Variant: S290_T292del
- cAMP reporter score ([1]; pH 5.5): 0.125
- cAMP reporter score ([1]; pH 6): -1.31
- cAMP reporter score ([1]; pH 6, modulator: ogerin): -0.183
- cAMP reporter score ([1]; pH 6.5, modulator: ogerin): -0.747
- surface expression score [2]: -1.19

Variant: S290del
- cAMP reporter score ([1]; pH 5.5): -1.76
- cAMP reporter score ([1]; pH 6): -0.848
- cAMP reporter score ([1]; pH 6, modulator: ogerin): -1.39
- cAMP reporter score ([1]; pH 6.5, modulator: ogerin): -1.3
- surface expression score [2]: 0.313

Variant: E291_T292insGS
- cAMP reporter score ([1]; pH 5.5): -0.944
- cAMP reporter score ([1]; pH 6, modulator: ogerin): -1.51
- cAMP reporter score ([1]; pH 6.5, modulator: ogerin): -0.616
- surface expression score [2]: 0.046

Variant: T292_T293del
- cAMP reporter score ([1]; pH 5.5): -1.28
- cAMP reporter score ([1]; pH 6): -0.947
- cAMP reporter score ([1]; pH 6, modulator: ogerin): -1.85
- cAMP reporter score ([1]; pH 6.5, modulator: ogerin): -0.501
- surface expression score [2]: 0.653

Variant: T292_T293insGS
- cAMP reporter score ([1]; pH 5.5): -1.64
- cAMP reporter score ([1]; pH 6): -1.17
- cAMP reporter score ([1]; pH 6, modulator: ogerin): -1.23
- cAMP reporter score ([1]; pH 6.5, modulator: ogerin): -1.43
- surface expression score [2]: 0.229

Variant: T292del
- cAMP reporter score ([1]; pH 5.5): -1.17
- cAMP reporter score ([1]; pH 6): -1.17
- cAMP reporter score ([1]; pH 6, modulator: ogerin): -2.04
- cAMP reporter score ([1]; pH 6.5, modulator: ogerin): -1.47
- surface expression score [2]: -0.453

Variant: T293A
- cAMP reporter score ([1]; pH 5.5): 1.06
- cAMP reporter score ([1]; pH 6): 0.551
- cAMP reporter score ([1]; pH 6, modulator: ogerin): 0.676
- cAMP reporter score ([1]; pH 6.5, modulator: ogerin): 1.15
- surface expression score [2]: 1.25

Variant: T293C
- cAMP reporter score ([1]; pH 5.5): -0.434
- cAMP reporter score ([1]; pH 6): 0.617
- cAMP reporter score ([1]; pH 6, modulator: ogerin): 0.796
- cAMP reporter score ([1]; pH 6.5, modulator: ogerin): 0.059
- surface expression score [2]: 0.57

Variant: T293D
- cAMP reporter score ([1]; pH 5.5): -0.726
- cAMP reporter score ([1]; pH 6): -0.197
- cAMP reporter score ([1]; pH 6, modulator: ogerin): -1.42
- cAMP reporter score ([1]; pH 6.5, modulator: ogerin): -0.803
- surface expression score [2]: -0.074

Variant: T293E
- cAMP reporter score ([1]; pH 5.5): -0.591
- cAMP reporter score ([1]; pH 6, modulator: ogerin): -1.39
- cAMP reporter score ([1]; pH 6.5, modulator: ogerin): -0.028
- surface expression score [2]: 0.812

Variant: T293F
- cAMP reporter score ([1]; pH 5.5): 0.066
- cAMP reporter score ([1]; pH 6): 0.212
- cAMP reporter score ([1]; pH 6, modulator: ogerin): 0.42
- cAMP reporter score ([1]; pH 6.5, modulator: ogerin): 0.532
- surface expression score [2]: 0.094

Variant: T293G
- cAMP reporter score ([1]; pH 5.5): -0.069
- cAMP reporter score ([1]; pH 6): 0.404
- cAMP reporter score ([1]; pH 6, modulator: ogerin): 0.157
- cAMP reporter score ([1]; pH 6.5, modulator: ogerin): -0.855
- surface expression score [2]: 1.11

Variant: T293H
- cAMP reporter score ([1]; pH 5.5): -0.083
- cAMP reporter score ([1]; pH 6): 0.488
- cAMP reporter score ([1]; pH 6, modulator: ogerin): -0.527
- cAMP reporter score ([1]; pH 6.5, modulator: ogerin): -1.81

Variant: T293I
- cAMP reporter score ([1]; pH 5.5): -0.813
- cAMP reporter score ([1]; pH 6): -0.903
- cAMP reporter score ([1]; pH 6, modulator: ogerin): -1.54
- cAMP reporter score ([1]; pH 6.5, modulator: ogerin): -0.86
- surface expression score [2]: -0.342

Variant: T293K
- cAMP reporter score ([1]; pH 5.5): -0.775
- cAMP reporter score ([1]; pH 6): -1.38
- cAMP reporter score ([1]; pH 6, modulator: ogerin): -0.384
- cAMP reporter score ([1]; pH 6.5, modulator: ogerin): -0.928
- surface expression score [2]: -0.401

Variant: T293L
- cAMP reporter score ([1]; pH 5.5): -1.22
- cAMP reporter score ([1]; pH 6): -0.404
- cAMP reporter score ([1]; pH 6, modulator: ogerin): -1.44
- cAMP reporter score ([1]; pH 6.5, modulator: ogerin): -0.638
- surface expression score [2]: 0.603
